# Laboratory results taken from PubChem BioAssay AID588855 (National Center for Advancing Translational Sciences (NCATS), 2011).
# Hit rate of the full screen: of about 410,000 compounds, about 5,000 (1.2%) were called active. This list was built around the results that the source calls inconclusive (neither active nor inactive); the mix of calls is not that of the screen. The call rests on the fitted dose curve; in most records, active means well fitted inhibition curve with a large enough effect; inconclusive means small, poorly fitted or top-dose-only effect; inactive means no such curve, though single readings can be large or run the other way. Potencies beside an inconclusive call are fits to weak or partial responses and may not hold up.
# Experiment: qHTS for Inhibitors of TGF-b; further: nearly all actives have a fitted effect of over 65% in size
# Details: HepG2 CAGA-GFP TGF-b/SMAD3 reporter, GFP fluorescence, 18 h, TGF-beta stimulated, 500 pg/mL final; series mostly up to 46.1 µM; activity, negative = inhibition: at the top concentration
# How it was run: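 HEPG2 CAGA-GFP, 1000 cells/well; 2 h settle, 37 C; cpd via pin tool; TGF-b 500 pg/mL final; 18 h, 37 C; GFP imaging ex488/em500-530; %Activity normalised to -TGF-b and +DMSO controls; CRC fit, curve class.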
# On the % scale 0 is the no-effect control and ±100 the full control effect; potency means the concentration at half of the fitted maximal effect; tags describe the fitted curve by direction and shape.
Compound,"activity, negative = inhibition",Potency
Cc1ccc(C(NC(=O)C2CCN(CCOc3ccccc3)CC2)c2ccccn2)cc1 (stereo not drawn),inactive: -2.45%,
O=C(CC(C(=O)N1CCc2ccccc21)n1ccnc1)N1CCc2ccccc2C1 (stereo not drawn),,"inconclusive: 35.5 µM [inhibitor, partial curve, poor fit]"
Cc1cc(C)c(-c2n[nH]c3c2C(c2ccccc2F)N(Cc2ccco2)C3=O)c(O)c1 (stereo not drawn),,"inconclusive: 35.5 µM [inhibitor, single point]"
Cc1ccc(S(=O)(=O)N2CCCN(C(=O)c3cc4ccccc4[nH]3)CC2)cc1,,"inconclusive: 35.5 µM [inhibitor, single point]"
FC(F)(F)c1cccc(N2CCN(C3CC4CCC3C4)CC2)c1 (stereo not drawn),,"inconclusive: 1 µM [inhibitor, partial curve, poor fit]"
COc1cccc(OCCOCCN(C)CCO)c1,,"inconclusive: 35.5 µM [inhibitor, single point]"
O=C(COC(=O)Cc1ccc(S(=O)(=O)N2CCOCC2)s1)Nc1ccc(F)cc1F,,"inconclusive: 11.2 µM [inhibitor, partial curve, poor fit]"
CCc1ccc(OCC(=O)O/N=C(\N)Cc2ccc([N+](=O)[O-])cc2)cc1,,"inconclusive: 35.5 µM [inhibitor, single point]"
COc1ccc(C(=O)Nc2cccc(-c3cc4ccccc4oc3=O)c2)cc1[N+](=O)[O-],,"inconclusive: 10 µM [inhibitor, partial curve]"
COc1ccc(CNC(=O)CN2C(=O)CC(c3ccc(C)c(C)c3)=Nc3ccccc32)cc1,,"inconclusive: 12.6 µM [inhibitor, partial curve]"
CC1=C(C(=O)N(C(C)C)C(C)C)CC(CC(=O)NCc2cccc3ccccc23)C(=O)N1Cc1ccccc1 (stereo not drawn),,"inconclusive: 22.4 µM [inhibitor, single point]"
COc1ccc(C(=O)NCCn2cc(SCc3c(F)cccc3Cl)c3ccccc32)cc1,,active: 15.8 µM
CC(=O)c1c(C)[nH]c(C(=O)Nc2cccc(C(F)(F)F)c2)c1C,,"inconclusive: 15.8 µM [inhibitor, single point]"
CCc1ccc(CNC(=O)C2CCN(S(=O)(=O)N3CCCCC3)CC2)cc1,inactive: 0.333%,
CC(=O)N1CCN(c2ncnc3sc(-c4ccccc4)cc23)CC1,inactive: 8.31%,
Cc1ccc(S(=O)(=O)NC(CC(C)C)C(=O)Nc2ccncc2)cc1 (stereo not drawn),,"inconclusive: 0.708 µM [inhibitor, full curve, poor fit]"
COc1ccc(S(=O)(=O)N2CCC(C(=O)Nc3ccccc3N3CCCC3)CC2)cc1OC,,"inconclusive: 22.4 µM [inhibitor, single point]"

Compound,"activity, negative = inhibition",Potency
CCCC(=O)c1c(NCCO)cc(C)oc1=O,inactive: -11.9%,
C=C1C2(C(=O)Nc3nccs3)CCC(C2)C1(C)C (stereo not drawn),inactive: -18.4%,
COc1cc(CCN(C(=O)c2cc3ccccc3[nH]2)C(C)c2nc3ccccc3[nH]2)cc(OC)c1 (stereo not drawn),,"inconclusive: 17.8 µM [inhibitor, single point]"
Cc1cccc(NC(=O)COn2nnc3ccc(S(C)(=O)=O)cc32)c1,,"inconclusive: 35.5 µM [inhibitor, single point]"
Cc1ccc(NC(=O)c2sc3nc(-c4cccs4)ccc3c2N)cc1F,inactive: 1.37%,
CCOc1ccc(OCCNCc2ccc(OC(C)C(=O)N(C)C)c(OCC)c2)cc1 (stereo not drawn),inactive: 0%,
CCOC(=O)C1CCCN(c2nc3c(S(=O)(=O)c4ccc(CC)cc4)nnn3c3ccc(Cl)cc23)C1 (stereo not drawn),inactive: 0.184%,
CC1=CC2C(C(O)CC3(C)C2CC(C)C32OCOC23COCO3)C2(C)C/C(=C\O)C(=O)C=C12 (stereo not drawn),,active: 5.62 µM
O=C(CSc1n[nH]c(-c2ccccc2Cl)n1)NCCc1ccccc1,,"inconclusive: 3.16 µM [inhibitor, full curve]"
O=C(CN1C(=O)NC2(CCCC2)C1=O)OCC(=O)c1cccc(Cl)c1,inactive: -3.7%,
Cc1ccccc1C(=O)N1CCC(C(=O)Nc2ccc(S(=O)(=O)N3C(C)CCCC3C)cc2)CC1 (stereo not drawn),,"inconclusive: 35.5 µM [inhibitor, single point]"
O=[N+]([O-])c1ccc2c(c1)C=C/C2=C/c1ccccc1,,"inconclusive: 22.4 µM [inhibitor, single point]"
COc1ccc(OC)c(CNc2ncc(-c3cccc([N+](=O)[O-])c3)n2C)c1,inactive: -7.89%,
CCc1nn(CCCC(=O)NCc2ccc(OC(C)C)cc2)c(=O)c2cc3occc3n12,,"inconclusive: 20 µM [inhibitor, single point]"
O=C(NC(=S)Nc1cccc(NC(=S)NC(=O)c2ccccc2)c1)c1ccccc1,inactive: -6.94%,
Oc1c(CN2CCCC(C(F)(F)F)C2)cc(Cl)c2ccccc12 (stereo not drawn),,"inconclusive: 7.08 µM [inhibitor, partial curve]"
